Measured values from the RNAGym collection of RNA variant scans (doi:10.1093/nar/gkz1192).
Read counts are not given, so values of variants with three or more changes are uncertain.

B1: CPEB3 Ribozyme (parent)
chain: UAACAGGGGGCCACAGCAGAAGCGUUCACGUCGCAGCCCCUGUCAGAUUCUGGUGAAUCUGCGAAUUCUGCUGUAUAUCUC

Variants of: B1
Assay: self-cleavage, relative activity (ratio to wild type); higher = more cleavage; in vitro, sequencing
Summary of the method: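 Relative activity was defined as the cleaved/total read fraction for a variant divided by the same fraction for the unmutated ribozyme. CPEB3 self-cleaving ribozyme libraries were made by rounds of error-prone PCR, barcoded, and transcribed in vitro with T7 RNA polymerase for 5 hours at 37°C, and cleavage ran through transcription plus a 15 min DNase I step before EDTA. Illumina sequencing of template-switched reverse transcripts gave the reads, and DNA sequencing mapped the barcodes. Averages come from three batches, using variants with at least 5 reads.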

| Variant | self-cleavage |
| --- | --- |
| A5G A28U U43G U49C | 0.45 |
| A5G G7C A18U G19A A28G U58C U80G | 0.07 |
| A5G C23U A35G C50A U58C U60C U67C | 0.13 |
| A5G A20G U26C | 0.06 |
| A5G G10U A15U A21U U43C U80C | 0 |
| A5G A13G C62G A65U | 0.07 |
| A5G A18G U60A A75G | 0.3 |
| A5G A13G A35U U60C A64G C81U | 0.07 |
| A5G A21G A28U G33U A77U | 0.17 |
| A5G A15G G16U A18U U26C U43C U78C | 0.17 |
| A5G G8A C14U U31C | 0.25 |
| A5G A18C G33A A75U | 0.13 |
| A5G A13U U25C A28U U49C | 0.31 |
| A5G A18U A47G | 0.49 |
| A5G A20G A45G | 0.48 |
| A5G C23A C37A A45U U49A A56G | 0.03 |
| A5G A15U C44A U76A | 0.64 |
| A5G A21G A28C U31C C40U C44U | 0.06 |
| A5G A21C U26A G36U U41C | 0.07 |
| A5G A35U A75U U78C | 0.22 |
| A5G A13C A45G U74C | 0.49 |

| Variant | self-cleavage |
| --- | --- |
| A5C A13G A18U C40A U67C U78A | 0.17 |
| A5C U54A U66C | 0.35 |
| A5G A21U U43C | 0.3 |
| A5G C17U U41C | 0.62 |
| A5C A47U A56U U58C U72A | 0.08 |
| A5G C23U U31A U74C U76A | 0.14 |
| A5G A45G G52A A64U U66G U72G | 0.09 |
| A5G A28G U80A | 0.47 |
| A5G A21G U25C | 0.72 |
| C4U G30U A35G U80C | 0.16 |
| A5G A28G A35U A65G | 0.06 |
| A5G G7A U69A U72C U74C | 0.09 |
| A5G A56U C59G C62U | 0.15 |
| A5C U43C U49A A57G U69C | 0.12 |
| A5G A21G U76C | 0.52 |
| A5G A18U A64G | 0.41 |
| A5G A64U G73A | 0.64 |
| A5G A15G U43G | 0.25 |
| A5G A13G A35U C62U | 0.04 |
| A5G A45G U49C | 0.39 |
| A5G A20G U25C A75G U78C | 0.13 |

| Variant | self-cleavage |
| --- | --- |
| A5G A15G G52U | 0.53 |
| A5G A28U U74A | 1.07 |
| A5G C29U G30C U48A U72C | 0.32 |
| A5G A21G A65G | 0.38 |
| A5G C12A A20G A35U U49G U80C | 0.2 |
| A5G A13C A35U U78A | 0.29 |
| A5G C39A U41C G42A | 0.32 |
| A5G A28U A64G | 0.62 |
| A5G C23U U67C | 0.16 |
| A5G G6U A28U | 0.29 |
| A5C A13G G36U A57U A64U U69C U78G | 0.04 |
| A5G C14A A56G A65G | 0.15 |
| A5G A20G U60C U80C | 0.41 |
| A5G G24A A56G | 0.4 |
| C4U U69C U78C | 0.95 |
| A5G C17A A35C U51C | 0.41 |
| A5G A20U U41C U51C | 0.08 |
| A5G A13U A18G A35G A57G U72G U74A | 0.59 |
| A5G A20G A28U G30A | 0.31 |
| A5G G8U G30C U69A U72C | 0.05 |
| A5C U26C U76C | 0.59 |

| Variant | self-cleavage |
| --- | --- |
| A5G A13U U31C A64C | 0.19 |
| A5G A21G C37A | 0.17 |
| A5G A15G A18G A20G C50A A65G U72C | 0.08 |
| A5G A21G C50G G55A | 0.06 |
| A5G C38U A56G A65U U66C | 0.34 |
| A5G C17U U25C C40A U60A A64G | 0.26 |
| A5G G30A U41A G53A U60A | 0.12 |
| A5G G30A U41C A47G | 0.36 |
| A5C G30A A35U A64U | 0.25 |
| A5G A13G A18G A28U A45U U51A U54C | 0.12 |
| A5G C17U A28G U51C U78C | 0.08 |
| A5G G16A A35U U76C U80C | 0.11 |
| A5G A56U C62U | 0.12 |
| A5G G19U U78C | 0.23 |
| A5G C29G A35G U43A C81G | 0.53 |
| A5G G8U A45G A64G U66C | 0.23 |
| A5G A15G U41A A45G U66C A77G | 0.75 |
| A5C U25C U72C A75G C81U | 0.09 |
| C4U U25C A45G U51G U69C | 0.16 |
| A5G A13G A28G A35U A57G U69A A77G | 0.05 |
| A5G A28G U41G A64C U66G U67A C71A | 0.05 |
